# The supplement of paper PMC12632987
# Over roughly 4,500 sequences, “median log2 fold change of GCK-ALFA target abundance (FLAG IP / Myc IP barcode read proportion)” has its median near 0.078; the lowest 2% begin near -0.6. Some of the results follow.
# B1: GBRAP_52_5935 (protein)
# chain: MRERIRELVERLVELVKEGKLEEARKLAREIVETLSEEELRLFIEELAELARTAPKEDIDYILEAAEIVAEEMERGGWDEVLADELLARVAAAAYENLQR
# B2: GBRAP_160_4363 (protein)
# chain: SPELKALAEEIEELRKEFEEEAKDLSPEEVRILGKGVLSEIGALIWSNPAVSDETEDKIFEIIDKALKEIDAKKDASPEEIVAIVTKAADEIIKLVREEA
# B3: GBRAP_160_4575 (protein)
# chain: SAAMEKLIEEIKKLTEEALELLEDESYEQRLAVVRVLGGDILLLLEENPEASEELEEEAAAIMDELVATLEANPDLTAEEIKALVKEATEKIIELIKKEA
# B4: GBRAP_11_2653 (protein)
# chain: KKEVLKEAAKLAAEAAATVDQLIAAGVDDAELRAKATALINELRELVKKHGSPALQSEVDVAVELWEELLADPANAEAYARELRAALRVLEGNFLLEIEE
# B5: GBRAP_128_3493 (protein)
# chain: STAEAVAQTRRLMEAIGRADPEERRRLTRELVALMASADPETAEAMADEAIELLPTLSAEALEVVADTLAELQPSLDPYVANLVADIRVEALNEREEKEE
# B6: GBRAP_43_5795 (protein)
# chain: DKEWVEGALDFAETALETPEITDETKAKIVVDAIEIAIEEGLLTPEELKKLLEKLEKSVSPEVAAKALEEILKKAKELGAPKELLKVIEEALKRAKKKLE
# B7: GBRAP_52_6039 (protein)
# chain: MEEEMRRKAEEIVELVKAGRRAEAEARIRELVATWSEEELELLGEELARLAREAEPEDLDAVMEAALMLADALEAAGYDPAFADDLLARVAAAAVENLQR
# B8: GBRAP_80_6791 (protein)
# chain: AEEELKEYLEEIEKLDKEIAERVKRIVERAKELGVSLETLAEFAKAIAELLKVDKEKAREIVEELEEVLEEEEEEGNRENAEAALRVYAGQALLEVEELE
# B9: GBRAP_160_4769 (protein)
# chain: KEKLKELKKEVEEIFEEYIELLKESEKEEAVTIVRGAAGEVLMEVMSSDAASEELEEKIAKILDETIKTAEENADKPVEWFIKLLEESKKKILELIEKEI
# B10: GBRAP_57_6473 (protein)
# chain: MERLKKVEEHAERALRLIEEGAPEEEILEEIRKMLEELSEETLRDILLIADPSAEYDISKEEAIERLLELARRYLEEGDLEKVRRLVELIEGEAEMEATE
# B11: GBRAP_166_4902 (protein)
# chain: NNKEKIEKLKKEAEELIKKFEEADEEEAWELVIEFGEILEELKKLGMEEEEILELVRKLLKVAKEKGFNVRVVAGIIANVADFDEEELDKLDEIVEEVEA
# B12: GBRAP_80_6751 (protein)
# chain: ARARLEAALAELKALDPELGARLAAVLERALEAGVDARVLARTVEALVELAKLDLEKARELAERLIAELTAALEAGDLEAATAVLVDAESDALLAVEELE
# B13: GBRAP_125_2992 (protein)
# chain: SEEAVLADLATVLRALGFDDEDVEEAVALARAHGVRGTMYAALLALGYEELADLVAKLTEEETREALRRVAAELAANPDLTPEEVKELLLRVLKEILARR
# B14: GBRAP_139_3738 (protein)
# chain: AAPEAIVAAAAAAARALRDDPDALADYLVEQIKAVDEETAAAIVAAAMAALADLPVDRQLEIVDRVLEKLEEAGVSEDKRDVAEAELNGGLARHAAAEEA
# B15: GBRAP_52_6286 (protein)
# chain: SEEEVREVAEEILRLIEEGDLEGALELARKFAEESSLEEVLRLAEELIERSKELPKEKLDMAFEVIEELAEGIEELFGAEEEADILEARAAAAIYEALQA
# B16: GBRAP_78_6705 (protein)
# chain: EVEELIDKAIEELNKAAKLLVPLKTELANDALGHIVDAATYLEESEEKGVDLELLKEAKEHIEKAIELAKKLDSEKKPEILKHLTEALKLVEEAIKLVKK
# B17: GBRAP_160_4569 (protein)
# chain: SPAHEALIKEIREIAEEAIEFIKGQNFEERLNIVRVAAGEILLLLDENPEVSEETLDKADEIFDELIATIEANPDLTEEEIQALLREAVEKVIELIKKES
# B18: GBRAP_160_4619 (protein)
# chain: SEKVEELKKFVEEEFEETKEMIVGQTPEERAAIVDVTIGEIILEAEELEVVSDETLDEIDEIGDELVETILANPDLTDEEIKALIDEAREKIIALIEKDE
# B19: GBRAP_78_6596 (protein)
# chain: EVEELLDEAIEHLDKAAKLAKKLPEEKSNELLDLIVEAMSDILLAIENGFDLELLEEAKKYVKEAIEEAKKFNHPEAPEIIKELEKALELLEKAIELVKK
# B20: GBRAP_52_5911 (protein)
# chain: MRERLRALAEEALALVRAGDEEGARALLRRLAEELNDEELEEFIEEVAELVLAAPREELPAFERLAEIAAEELEREGRDEVLADDLLARTAAAIHEVLQR
# B21: GBRAP_52_6233 (protein)
# chain: MEERARELAEELLALALAGDEEGLRKKVKEIVKNESDEFIKLLVDVLAERLRTGDEAEAEAAERVLELLAKELEEEGKDEVLADYVESRLAAAAYEREQA
# B22: GBRAP_137_3645 (protein)
# chain: MNVTITKKTYGDLVEITITADDPEKAEEVKEMIEDIAVEKGALAISTEINEDGTLEAVIWVPKDKADALIKAITEKLKTEFGATVTIIDEDTGETKVIKP
# B23: GBRAP_35_5618 (protein)
# chain: MSDEELTDMLVDLIEDATAAVPDVSVETLAAIAASLSRAVRSLAEELAGNAENLRRLADAVEALRDAIERHHGDDPLAQETIAALTATAEEIRARAAASE
# B24: GBRAP_39_5654 (protein)
# chain: EEEEENELIFSYLIALAEKYRVEKGISEEELLEEGRELLEKMAEEHPEIAELVEKALEKMEEGDEETKEAIVGIALLYERGEPLEEIKEYLESLLKYIES
# B25: GBRAP_160_4313 (protein)
# chain: MEELEELKKEIEEIVEEAKKMLEGESAEQRKTIARVTLGEILLLAFENEAISDELEEKIAEIVDAAEAEIDANPDLTEEELKALLEKTREEILKLIDESE
# B26: GBRAP_125_3038 (protein)
# chain: SEEEVIEALAELARRLGLSEEEVEELARLAREHGAKGALIALLLAEGEEELAELAAKLSDEALAEVLKKLLAWLKAHPDATAEEALAKLKELLLEALAKQ
# B27: GBRAP_184_5135 (protein)
# chain: ELVRRAVESEKAEELIEEAEKVVKEAAAAGKKLFLAVFAENMSVEEVIKVIKRLGELKKKYPQVEVLVDVLDERSEEEIDKLVKAADEAGVRLVVAISDE
# B28: GBRAP_128_3524 (protein)
# chain: SVEEAKKRAEEVVEKIKNSTVEEAYAITKELLDELLTLSLEEVKAVADVLIEKMPELSAEKLDAVADAIDENLGKFSPEKQQELNGVRVEALNEAEEKEE
# B29: GBRAP_184_5263 (protein)
# chain: AVLERVVEAENVEELIEKMEEIREEALASGADVIILLKVKELTKEMIDALFAQLKKLRDAGYTGRVTVGIDADLTEEMIDYVVEKADEAGVNVVLAISEE
# Molecular target: GABARAP, O95166
# Sequence (O95166 whole entry, the tested form may be a part): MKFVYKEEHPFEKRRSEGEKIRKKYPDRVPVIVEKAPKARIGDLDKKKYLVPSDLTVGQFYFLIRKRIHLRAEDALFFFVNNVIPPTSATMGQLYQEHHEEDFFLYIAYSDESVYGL
# Experiment: median log2 fold change of GCK-ALFA target abundance (FLAG IP / Myc IP barcode read proportion) (log2 ratio); each designed protein is fused to an ALFA-tag nanobody in HEK293 cells to bring the named protein to FLAG-tagged glucokinase (GCK); Myc marks an untargeted standard; higher = target protein stabilised (more abundant)
# Settings: target protein: 3xFLAG-MCP-GCK-ALFA reporter; HEK293 landing pad (RPLP)
# How it was run: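 The readout is target abundance, the per-binder median log2 ratio of FLAG to Myc barcode read proportions. It came from HEK293 landing-pad cells carrying a recombined ALFA-nanobody-fused binder library, induced with 2 μg mL^−1 doxycycline and transfected with a plasmid for a FLAG-tagged target and a Myc-tagged standard. After 48 h, lysates were immunoprecipitated with anti-FLAG and anti-Myc, and circular RNA barcodes were reverse transcribed, amplified and sequenced. Each barcode needed a proportion of at least 10^−7 in both replicates and each binder at least 3 barcodes per replicate, a pseudocount of 10^−6 was added, and the replicates were pooled.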
row,Binder,median log2 fold change
1,B1,0.112
2,B2,-0.231
3,B3,0.0746
4,B4,0.269
5,B5,0.206
6,B6,-0.0146
7,B7,-0.911
8,B8,-0.0155
9,B9,0.115
10,B10,0.161
11,B11,-0.0212
12,B12,0.00942
13,B13,-0.12
14,B14,-0.219
15,B15,-0.541
16,B16,0.17
17,B17,-0.213
18,B18,-0.678
19,B19,0.17
20,B20,0.00867
21,B21,0.389
22,B22,0.215
23,B23,-1.48
24,B24,-0.0617
25,B25,-0.284
26,B26,-0.0535
27,B27,0.0538
28,B28,0.221
29,B29,0.101
